Test results: PubChem BioAssay AID504466 (National Center for Advancing Translational Sciences (NCATS), 2011)
The whole screen tested about 330,000 compounds, of which about 4,200 (1.3%) were called active. The shares of active, inactive and inconclusive entries below differ from those in the screen. The call rests on the fitted dose curve; in most records, active means well fitted activation curve with a large enough effect; inconclusive means small, poorly fitted or top-dose-only effect; inactive means no such curve, though single readings can be large or run the other way. Potencies of inconclusive entries are doubtful fits and often do not repeat.
Potency means the concentration at half of the fitted maximal effect; tags describe the fitted curve by direction and shape.

Experiment: qHTS screen for small molecules that induce genotoxicity in human embryonic kidney (HEK293T) cells expressing luciferase-tagged ELG1; further: nearly all actives have a fitted effect of over 60% in size
Conditions: HEK293T ELG1-luciferase reporter, luminescence, 16 h; series mostly up to 46 µM
Method in brief: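 Step 1: seed 2,000 HEK293T ELG1-luciferase cells per well. Step 2: add compound or DMSO, incubate 16 hr at 37 °C. Step 3: ONE-Glo, 30 min at room temperature, read luminescence.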
With `CCCc1nc(-c2ccc(-c3ccc(F)cc3)cc2)no1` the Potency was inconclusive: 16.4 µM [activator, single point].
With `O=C(NCCO)c1ccc(Cl)c(Cl)c1` the Potency was “inactive”.
For `CC(=O)c1ccc(OCc2cc(C(=O)NC(C)c3cnn(C)c3)no2)cc1` (centres undefined), the Potency was inconclusive: 11.6 µM [activator, partial curve, poor fit].
For `COc1cc2oc3ccccc3c(=O)c2cc1OC`, the Potency was inconclusive: 20.6 µM [activator, single point].
In the case of `O=C1CCN(Cc2ccccc2)C=C1c1ccc2ccccc2c1`, the Potency is reported as inconclusive: 18.3 µM [activator, partial curve].
In the case of `Cc1ccc(OCc2nnc(SCC(=O)Nc3cccc4ccccc34)n2-c2ccccc2)cc1`, the Potency is reported as “inactive”.
In the case of `Cn1nnnc1SCc1nnc(-c2ccc(Cl)cc2)o1`, the Potency is reported as inconclusive: 29.1 µM [activator, single point].
In the case of `COc1ccc(/C=C/C(O)=C2/C(=O)NC3(C)CC2c2ccccc2O3)c(OC)c1OC` (centres undefined), the Potency is reported as inconclusive: 32.6 µM [activator, single point].
With `CC(C)OC(=O)COc1ccc(-c2ccccc2)cc1` the Potency was “inactive”.
With `Cn1ncc(Cl)c1C(=O)Nc1nc2ccc(Cl)cc2s1` the Potency was inconclusive: 2.06 µM [activator, full curve, poor fit].
In the case of `CCOC(=O)c1nn(-c2ccc3c(c2)OCCO3)cc1O`, the Potency is reported as active: 8.2 µM.
For `COc1ccc(-c2nc(SC)n(C(=O)c3ccco3)n2)cc1`, the Potency was inconclusive: 29.1 µM [activator, single point].
With `COc1ccc(-c2csc(NC(=O)c3c(C)noc3C)n2)cc1F` the Potency was “inactive”.
For `CC(=O)c1cccc(NC(=O)c2cc3ccccn3n2)c1`, the Potency was active: 18.4 µM.
In the case of `COc1ccc(O)c(-c2cc(-c3ccccc3Cl)[nH]n2)c1`, the Potency is reported as inconclusive: 5.8 µM [activator, partial curve, poor fit].
For `O=C(Nc1nc2cc3c(cc2s1)OCCO3)C1CCCCC1`, the Potency was inconclusive: 0.92 µM [activator, partial curve].
With `NC(=O)c1ccc(-c2noc(-c3cccc(Cl)c3)n2)cc1` the Potency was inconclusive: 13 µM [activator, partial curve, poor fit].
In the case of `COc1c(Cl)cc(C(=O)NN)cc1Cl`, the Potency is reported as inconclusive: 32.6 µM [activator, partial curve, poor fit].
With `COc1ccc(N2CCCn3c2nc2c3c(=O)n(CCN3CCOCC3)c(=O)n2C)cc1` the Potency was inconclusive: 29.1 µM [activator, partial curve, poor fit].
For `COc1cccc(/C=C/C(=O)Oc2ccc(C(=O)c3ccc(F)cc3)cc2)c1`, the Potency was “inactive”.
For `C/C(CCc1ccccc1)=N\NC(=O)CC(=O)NCCc1ccccc1`, the Potency was “inactive”.
With `Cc1nnc(NC(=O)c2ccccc2NC(=O)c2ccccc2)s1` the Potency was “inactive”.
In the case of `CC(C)[C@H](NC(=O)OC(C)(C)C)c1nnc(SCC(=O)Nc2ccc(Br)cc2)o1`, the Potency is reported as “inactive”.
For `COC(=O)c1ccc(Nc2nc3ccc(C)cc3n3cnnc23)cc1`, the Potency was inconclusive: 20.6 µM [activator, partial curve, poor fit].
For `CN(c1ccc(O)cc1)c1nc(-c2cccnc2)cs1`, the Potency was inconclusive: 11.6 µM [activator, partial curve].
For `Cc1sc(NC(=O)CCCC(=O)O)c(C(N)=O)c1-c1ccccc1`, the Potency was inconclusive: 13 µM [activator, partial curve, poor fit].
With `CC(=O)Nc1ccc(-c2cc3ccccc3o2)cc1` the Potency was inconclusive: 4.61 µM [activator, full curve].
For `CC(C)(C)c1cc[n+](C2=C([O-])c3ccccc3C(=O)/C2=N\S(=O)(=O)c2cccs2)cc1`, the Potency was “inactive”.
For `NNC(=O)c1ccc(Cn2cc(Cl)cn2)cc1`, the Potency was “inactive”.
With `N/C(=N\OC(=O)c1ccc2c(c1)OCO2)c1cccc(Br)c1` the Potency was inconclusive: 14.6 µM [activator, partial curve, poor fit].
In the case of `COc1cc(OC)c(NC(=O)c2cncn2-c2ccc(F)cc2)cc1Cl`, the Potency is reported as “inactive”.
In the case of `O=C(N/N=C/c1ccccc1Cl)c1[nH]c2ccc(Br)cc2c1-c1ccccc1`, the Potency is reported as inconclusive: 2.31 µM [activator, full curve, poor fit].
For `CCc1ccc(CCC(=O)Nc2ccc(C)c(C)c2)o1`, the Potency was inconclusive: 16.4 µM [activator, single point].
With `COCCn1c(SCC(=O)Nc2ccccc2)nc2c(oc3ccccc32)c1=O` the Potency was active: 23.1 µM.
With `COc1ccc(C(C)NC(=O)Nc2ccc(C(C)=O)cc2)cc1OC` (centres undefined) the Potency was inconclusive: 16.4 µM [activator, partial curve].
In the case of `O=[N+]([O-])c1nn(-c2ccccc2)n(O)c1=NCCc1ccccc1`, the Potency is reported as inconclusive: 29.1 µM [activator, single point].
For `Cc1nc(-c2ccc(C(=O)Nc3ccc(F)cc3)cc2)cs1`, the Potency was active: 20.6 µM.
For `COC(=O)Oc1ccc(/C=N/NC(=O)CN(c2ccccc2Cl)S(C)(=O)=O)cc1OC`, the Potency was inconclusive: 16.4 µM [activator, partial curve, poor fit].
With `c1ccc(-c2cccc(-c3ccccn3)n2)nc1` the Potency was inconclusive: 29.1 µM [activator, single point].
For `CN(CCC#N)C(=O)c1cc2c(s1)-c1ccccc1SC2`, the Potency was inconclusive: 18.3 µM [activator, partial curve].
With `Cn1c(=O)c2c(ncn2CC(=O)N(Cc2ccccc2)c2ccccn2)n(C)c1=O` the Potency was inconclusive: 20.6 µM [activator, partial curve, poor fit].
In the case of `O=C(OCCc1ccccc1)c1cc(O)c(O)c(O)c1`, the Potency is reported as inconclusive: 5.8 µM [activator, single point].
For `CCCSc1nnc(NC(=O)c2ccco2)s1`, the Potency was inconclusive: 13 µM [activator, partial curve].
In the case of `O=C(NNC(=O)c1cc(-c2ccc(Cl)c(Cl)c2)nc2ccccc12)Nc1ccccc1`, the Potency is reported as “inactive”.
For `O=C(O)c1cccc(OCCN2CCCC2=O)c1`, the Potency was “inactive”.
In the case of `Cc1ccc(C(=O)NCCNC(=O)c2ccc(F)cc2)cn1`, the Potency is reported as “inactive”.
In the case of `COc1ccc(C(=O)Nc2nc(-c3ccccn3)cs2)cc1S(=O)(=O)N1CCOCC1`, the Potency is reported as “inactive”.
With `COc1cccc(NC(=O)C2=COCCO2)c1` the Potency was inconclusive: 16.4 µM [activator, partial curve, poor fit].
For `C1CCC(CNc2c3c(nc4nnnn24)CCCC3)CC1`, the Potency was “inactive”.
With `O=[N+]([O-])c1ccc(NC(=S)NCCc2ccccc2)cc1` the Potency was inconclusive: 29.1 µM [activator, single point].
For `CC(C)NC(=O)CSc1c2c(nc3ccccc13)CCCC2`, the Potency was “inactive”.
In the case of `CCS(=O)(=O)N1Cc2ccccc2CC1C(=O)Nc1ncc(C)s1` (centres undefined), the Potency is reported as inconclusive: 20.6 µM [activator, partial curve, poor fit].
With `O=C(/C=C/c1ccc2c(c1)OCO2)Nc1ccc(Cl)cn1` the Potency was active: 2.06 µM.
In the case of `Cc1cccc(C)c1OCC(=O)N(Cc1ccc(Cl)cc1)C1CCS(=O)(=O)C1` (centres undefined), the Potency is reported as “inactive”.
With `Cn1cccc1C(=O)OCC(=O)Nc1ccc2c(c1)OCCO2` the Potency was active: 1.03 µM.
In the case of `Cc1ccc2nc(C(O)C(O)c3nc4ccc(C)cc4[nH]3)[nH]c2c1` (centres undefined), the Potency is reported as inconclusive: 20.6 µM [activator, partial curve, poor fit].
For `Oc1cccc(/C=N/Nc2ncnc3c2ncn3Cc2ccccc2)c1`, the Potency was “inactive”.
For `O=C(N1CCCC1)N1CCN(c2ncnc3c(-c4ccc(Cl)cc4)nsc23)CC1`, the Potency was inconclusive: 16.4 µM [activator, partial curve, poor fit].
With `S=C(NCc1ccc(Cl)cc1)Nc1ccccc1` the Potency was “inactive”.
In the case of `COc1ccc(C(=O)N(C)CCCC2CCCC2)cc1OC1CCN(C(C)C)CC1`, the Potency is reported as “inactive”.
With `O=C(O)Cc1ccc(NC(=O)Nc2ccc(Br)cc2)cc1` the Potency was “inactive”.
With `O=C(CSc1nnc(NC(=O)c2ccc(F)cc2)s1)NC1CC1` the Potency was inconclusive: 18.3 µM [activator, partial curve].
With `Oc1sc(C=Nc2ccccc2)c2ccccc12` the Potency was inconclusive: 20.6 µM [activator, single point].
With `CCN1CCc2c(sc(NC(=O)c3ccc(S(=O)(=O)N(CC)c4ccccc4)cc3)c2C(N)=O)C1` the Potency was inconclusive: 23.1 µM [activator, partial curve, poor fit].
For `Cc1ccc(NC(=O)N2CCCCCC2)c(C)c1`, the Potency was inconclusive: 20.6 µM [activator, single point].
In the case of `O=C(NNC(=O)c1ccccc1OCc1ccccc1Cl)c1csc(N2CCOCC2)n1`, the Potency is reported as inconclusive: 29.1 µM [activator, single point].
With `O=C(NC(=S)Nc1ccccc1[N+](=O)[O-])c1ccccc1Cl` the Potency was inconclusive: 18.3 µM [activator, partial curve, poor fit].
For `Cc1cc2nc(-c3ccc(SCC(=O)Nc4ccc(S(=O)(=O)N5CCCC5)cc4)nc3)[nH]c2cc1C`, the Potency was inconclusive: 2.91 µM [activator, full curve, poor fit].
For `CC(C)(C)C(=O)OCc1nc(-c2ccc(Cl)cc2)cs1`, the Potency was inconclusive: 18.3 µM [activator, single point].
In the case of `CC(C)(C)S(=O)(=O)c1cnc2c(-c3ccsc3)cnn2c1N`, the Potency is reported as “inactive”.
For `O=C(Nc1ccc2oc(-c3ccccc3F)nc2c1)c1ccco1`, the Potency was inconclusive: 2.31 µM [activator, full curve].
With `Cc1ccc(/C=N/Nc2nnc(Cc3ccccc3)c(=O)[nH]2)o1` the Potency was “inactive”.
For `O=C1c2ccccc2C(=O)c2c1cccc2N1CCN(CCO)CC1`, the Potency was inconclusive: 32.6 µM [activator, partial curve, poor fit].
With `CCc1ccc(-c2ccc(SCC(=O)Nc3nnc(C)s3)nn2)cc1` the Potency was inconclusive: 2.59 µM [activator, partial curve, poor fit].
